Article PMC4336329 (PLoS ONE, 2015)
In all, about 310,000 compounds went through this assay and about 14,000 (4.5%) showed an effect of 50% or more. The effect is printed as a negative number. The list shows a part of the results.

Biological target: human ether-à-go-go-related gene (hERG) potassium channel (human, UniProt Q12809)
Assay: primary screen, population patch clamp on CHO cells stably expressing hERG
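Further: peak tail current of the secondary pulse compared with the same well before compound.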

Sequence of human ether-à-go-go-related gene (hERG) potassium channel (Q12809 whole entry, looked up): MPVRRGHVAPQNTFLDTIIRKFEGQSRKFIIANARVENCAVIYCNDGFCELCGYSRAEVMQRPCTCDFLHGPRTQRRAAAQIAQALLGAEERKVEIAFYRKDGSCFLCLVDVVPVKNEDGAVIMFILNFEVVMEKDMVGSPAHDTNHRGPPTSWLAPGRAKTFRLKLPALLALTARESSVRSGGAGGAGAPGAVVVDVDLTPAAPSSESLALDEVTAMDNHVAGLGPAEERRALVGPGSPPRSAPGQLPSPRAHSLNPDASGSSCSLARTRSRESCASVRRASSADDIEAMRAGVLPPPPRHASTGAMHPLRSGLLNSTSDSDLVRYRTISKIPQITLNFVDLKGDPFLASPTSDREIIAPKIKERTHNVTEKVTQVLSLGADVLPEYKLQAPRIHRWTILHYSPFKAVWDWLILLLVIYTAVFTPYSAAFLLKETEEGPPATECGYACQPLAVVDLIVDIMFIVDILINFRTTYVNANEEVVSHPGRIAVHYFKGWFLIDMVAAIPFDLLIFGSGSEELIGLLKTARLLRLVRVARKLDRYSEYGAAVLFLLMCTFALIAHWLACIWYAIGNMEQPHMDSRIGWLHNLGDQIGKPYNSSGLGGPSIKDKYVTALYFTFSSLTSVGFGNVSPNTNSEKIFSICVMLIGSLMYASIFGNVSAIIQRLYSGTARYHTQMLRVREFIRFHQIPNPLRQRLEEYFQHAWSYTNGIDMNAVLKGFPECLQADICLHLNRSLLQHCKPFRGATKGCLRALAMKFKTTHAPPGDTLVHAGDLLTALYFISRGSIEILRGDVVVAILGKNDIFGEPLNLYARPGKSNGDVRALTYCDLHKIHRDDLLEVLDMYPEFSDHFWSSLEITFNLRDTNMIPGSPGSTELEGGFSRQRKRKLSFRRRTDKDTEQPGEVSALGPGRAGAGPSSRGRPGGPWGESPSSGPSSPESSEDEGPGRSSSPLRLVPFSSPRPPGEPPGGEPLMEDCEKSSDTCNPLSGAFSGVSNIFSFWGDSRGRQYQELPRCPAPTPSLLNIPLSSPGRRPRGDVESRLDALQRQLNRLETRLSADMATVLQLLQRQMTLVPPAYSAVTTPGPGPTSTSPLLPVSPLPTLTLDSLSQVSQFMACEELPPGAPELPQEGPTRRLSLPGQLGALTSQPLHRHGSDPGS

| Compound | hERG current change (%, negative = inhibition) at 10uM [%] |
| --- | --- |
| C/C(=N\NC(=O)c1ccccc1O)c1cccs1 | 1.88 |
| CSCCC(NC(=O)c1ccco1)C(=O)Nc1ccncc1 (stereo not drawn) | 5.38 |
| O=C(COc1ccccc1-c1ccccc1)NCCN1C(=O)S/C(=C\c2cccnc2)C1=O | -13.5 |
| O=C(Nc1ccc(Cl)cc1)N1CCSC1=NCc1ccccc1 | 14.3 |
| Cc1cc(C)c2c(N)c(C(=O)c3ccccc3)oc2n1 | -10.2 |
| Cn1c(N)c(C(=O)COC(=O)c2cc(C(F)(F)F)nc3ccccc23)c(=O)n(C)c1=O | -32.9 |
| Cc1cc(-c2ccc(C(C)C)c(S(=O)(=O)N3CCOc4ccccc43)c2)on1 | 20.2 |
| CCOC(=O)c1cc2sccc2n1CC(=O)Nc1ccc(OC)cc1OC | 0.145 |
| Cc1ccc(NC(=O)COc2nc(C)cs2)cc1 | 9.14 |
| Cc1oc2ccc(O)c(CN3CCOCC3)c2c1C(C)O (stereo not drawn) | 2.88 |
| Cc1ccc(S(=O)(=O)CCC(=O)OCC(=O)Nc2cc(F)ccc2C)cc1 | 9.01 |
| COc1cc(NC(C)=O)c2ncccc2c1[N+](=O)[O-] | -5.4 |
| O=C(CCN1C(=O)/C(=C/c2cccs2)SC1=S)NNC(=O)c1cccc(O)c1 | 8.81 |
| Cc1ccc(S(=O)(=O)c2nc(-c3cccs3)oc2NCc2cccnc2)cc1 | -18.3 |
| Cc1ccc(CNC(=O)CS(=O)(=O)Cc2nc(-c3ccc(C)cc3)oc2C)cc1 | 12.1 |
| O=C(CSc1ncnc2c1cnn2CCc1ccccc1)Nc1cccc(C(F)(F)F)c1 | -3.6 |
| CC(C)(C)c1ccc(S(=O)(=O)N2CC3CC(C2)c2cccc(=O)n2C3)cc1 (stereo not drawn) | -15.6 |
| CCN(CC)CCNC(=O)C(=O)NCC1OCCN1S(=O)(=O)c1cccs1 (stereo not drawn) | 9.64 |
| CCOC(=O)C1CCCN(Cc2ccc(OCC)cc2)C1 (stereo not drawn) | -42.9 |

| Compound | hERG current change (%, negative = inhibition) at 10uM [%] |
| --- | --- |
| CCOC(=O)c1c(NC(=O)CN2C(=O)NC3(CCCCC3C)C2=O)sc(C(=O)N(C)C)c1C (stereo not drawn) | -37.6 |
| COc1cc(=O)n(C)c2cc(N(C)C)ccc12 | 18.9 |
| Cc1ccc(CN(C)C(=O)c2ccccc2Sc2ccccc2C#N)cc1 | 23.4 |
| CCc1cc2ccc(C)cc2nc1SCC(=O)NNC(=O)c1ccco1 | 12 |
| O=C(Nc1ccc(N2CCOCC2)cc1)c1ccc(S(=O)(=O)N2CCCCC2)cc1 | -1.58 |
| O=C(NC(=O)c1cccc(F)c1)Nc1nc(-c2ccc(F)cc2)cc(C(F)(F)F)n1 | 23.5 |
| CCOC(=O)c1nn(C)c(C)c1Cl | 9.88 |
| Cc1cc(Cl)nc(Cl)c1C(=O)NCc1ccc(Cl)cc1 | -17.4 |
| CC(C)(C)c1nnc(SCC(=O)Nc2ccc(N3CCCCC3)cc2)n1N | 3.83 |
| Cc1cccc(N(C(=O)Cn2nnc(-c3ccc(C)o3)n2)C(C(=O)NC2CCCC2)c2ccncc2)c1 (stereo not drawn) | 2.73 |
| CCc1cccc(OCCCCN(CC)CC)c1 | -37.9 |
| CCO[C@@H]1OC(C(=O)N2CCN(C)CC2)=C[C@H](C2CCCCC2)[C@H]1CCCO | 0.0207 |
| CC1CCCCC1NC(=O)C1CCN(S(=O)(=O)N2CCOCC2)CC1 (stereo not drawn) | -8.73 |
| C=CCOC(=O)C1=C(C)NC(=O)NC1c1ccc(O)cc1 (stereo not drawn) | 15.4 |
| Cc1cc2nnc(SC(C)C)n2c2ccccc12 | -9.49 |
| Br.Cc1ccc(C(=O)CSc2nc3c([nH]2)c(=O)n(C)c(=O)n3C)cc1 | -5.44 |
| COc1cccc(NC(=O)c2ccccc2SC)c1 | -13.5 |
| COc1ccc(-n2nc(C(=O)NCC(=O)N3CCN(c4ccccn4)CC3)c3ccccc3c2=O)cc1 | -34.3 |
| CCOc1ccccc1C(=O)NC(C(=O)NCc1ccc(F)cc1)C(C)C (stereo not drawn) | -14.7 |

| Compound | hERG current change (%, negative = inhibition) at 10uM [%] |
| --- | --- |
| COc1cccc(NC(=O)c2cc3cccc(OC)c3o/c2=N\O)c1 | 9.1 |
| O=C(NNC1CC(=O)N(c2ccccc2)C1=O)c1ccc(COc2ccccc2Cl)o1 (stereo not drawn) | -42.3 |
| COc1ccc(COC(=O)C2CCN(S(=O)(=O)c3cccs3)CC2)cc1 | -0.0881 |
| COc1c(C)cc(Br)cc1C(=O)Nc1ccccc1C | 9.28 |
| CCCNc1c(NC(=O)c2ccc3c(c2)OCO3)c(=O)oc2ccccc12 | 11.8 |
| O=C(CC(Nc1cccc(Cl)c1Cl)C(=O)O)c1ccccc1 (stereo not drawn) | 6.53 |
| COC(=O)c1c(N)sc(Cc2ccccc2)c1C | 4.35 |
| Cc1cc(NC(=O)CCOc2ccccc2)no1 | -2.42 |
| O=C(Cn1c2[n+](c3ccccc31)CC(O)CS2)c1ccccc1.[Br-] (stereo not drawn) | 1.09 |
| O=C(CC(CC(=O)c1ccccc1)C(=O)O)c1ccccc1 | 17 |
| Cc1noc(NS(=O)(=O)c2ccc(NC(=O)/C=C/c3ccc(C(C)C)cc3)cc2)c1C | 14.9 |
| COc1ccc([N+](=O)[O-])cc1NC(=O)C(C)OC(=O)CN1C(=O)C2CC=CCC2C1=O (stereo not drawn) | -25.9 |
| CC(=O)c1c(C)[nH]c(C(=O)COC(=O)CCCOc2ccccc2)c1C | 18.7 |
| CCCC(CCC(=O)OC)(C(=O)OCC)c1csc(N)n1 (stereo not drawn) | -7.65 |
| CCOC(=O)N1CCC(NC(=O)CN2C(=O)CSc3nc(C)cc(C)c32)CC1 | 4.42 |
| Cc1cc([N+](=O)[O-])ccc1NC(=O)CSc1nnc(C)n1C | 16.3 |
| O=C(NC(=S)Nc1cccc2cnccc12)c1ccccc1 | 13.8 |
| Cc1[nH]c2ccc(Br)cc2c(=O)c1CN1CCOCC1 | -27.2 |
| CCn1ccnc1CN1CCCCC1C(=O)Nc1ccc(Oc2cccnc2)cc1 (stereo not drawn) | -31.3 |
